Experimental data from the supplement of paper PMC4604168 (melanoma cell lines).
The list shows a part of the results. Single values are uncertain, as repeats are few or missing.

How the values were obtained:
Assay in all cases: cell count relative to DMSO control; melanoma cells; higher = more viable cells
Conditions in all cases: library dose: low library concentration; 72 h
WM115 = system: WM115
WM1716 = system: WM1716
WM1745 = system: WM1745
WM3526 = system: WM3526
WM3619 = system: WM3619
WM451Lu = system: WM451Lu
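Further: cell number obtained by counting DAPI-stained nuclei in high-throughput microscope images with image analysis software, screen run in 1,536-well plates.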

Compound: CN(c1ncccc1CNc1nc(Nc2ccc3c(c2)CC(=O)N3)ncc1C(F)(F)F)S(C)(=O)=O + CC1(C)NC(=O)N(c2ccc([N+](=O)[O-])c(C(F)(F)F)c2)C1=O [nilutamide] (first compound 0.08 µM, partner dose 1 µM)
- cell count (WM115): 87.4%
- cell count (WM1716): 94.6%
- cell count (WM1745): 88.7%
- cell count (WM3526): 84.3%
- cell count (WM3619): 99.3%
- cell count (WM451Lu): 73.1%

Compound: CCCS(=O)(=O)Nc1ccc(F)c(C(=O)c2c[nH]c3ncc(Cl)cc23)c1F + c1cc(-c2cnn3cc(-c4ccc(OCCN5CCCCC5)cc4)cnc23)ccn1 [Dorsomorphin] (first compound 0.08 µM, partner dose 0.4 µM)
- cell count (WM115): 98.4%
- cell count (WM1716): 112%
- cell count (WM1745): 106%
- cell count (WM3526): 62.4%
- cell count (WM3619): 76.5%
- cell count (WM451Lu): 99.5%

Compound: C=C(c1ccc(C(=O)O)cc1)c1cc2c(cc1C)C(C)(C)CCC2(C)C [Bexarotene] + CC(=O)c1c(C)c2cnc(Nc3ccc(N4CCNCC4)cn3)nc2n(C2CCCC2)c1=O [palbociclib] (first compound 2 µM, partner dose 0.04 µM)
- cell count (WM115): 85.6%
- cell count (WM1716): 75.3%
- cell count (WM1745): 76.9%
- cell count (WM3526): 57.6%
- cell count (WM3619): 82.4%
- cell count (WM451Lu): 59.2%

Compound: CN(c1ncccc1CNc1nc(Nc2ccc3c(c2)CC(=O)N3)ncc1C(F)(F)F)S(C)(=O)=O + C=C(c1ccc(C(=O)O)cc1)c1cc2c(cc1C)C(C)(C)CCC2(C)C [Bexarotene] (first compound 0.08 µM, partner dose 2 µM)
- cell count (WM115): 79.8%
- cell count (WM1716): 77.8%
- cell count (WM1745): 75.7%
- cell count (WM3526): 77.9%
- cell count (WM3619): 108%
- cell count (WM451Lu): 66.7%

Compound: CN(c1ncccc1CNc1nc(Nc2ccc3c(c2)CC(=O)N3)ncc1C(F)(F)F)S(C)(=O)=O + Nc1cccc2c1CN(C1CCC(=O)NC1=O)C2=O [lenalidomide] (first compound 0.08 µM, partner dose 1 µM)
- cell count (WM115): 85.2%
- cell count (WM1716): 91.3%
- cell count (WM1745): 67.9%
- cell count (WM3526): 89.6%
- cell count (WM3619): 101%
- cell count (WM451Lu): 86%

Compound: CS(=O)(=O)c1ccc(C(=O)Nc2ccc(Cl)c(-c3ccccn3)c2)c(Cl)c1 [vismodegib] + C=CCNC1=C2C[C@@H](C)C[C@H](OC)[C@H](O)[C@@H](C)/C=C(\C)[C@H](OC(N)=O)[C@@H](OC)/C=C\C=C(/C)C(=O)NC(=CC1=O)C2=O [Tanespimycin] (first compound 1 µM, partner dose 0.002 µM)
- cell count (WM115): 96.3%
- cell count (WM1716): 105%
- cell count (WM1745): 91.7%
- cell count (WM3526): 99.9%
- cell count (WM3619): 112%
- cell count (WM451Lu): 93.1%

Compound: C=C(c1ccc(C(=O)O)cc1)c1cc2c(cc1C)C(C)(C)CCC2(C)C [Bexarotene] + Cn1nnc2c(C(N)=O)ncn2c1=O [temozolomide] (first compound 2 µM, partner dose 2 µM)
- cell count (WM115): 86.8%
- cell count (WM1716): 65%
- cell count (WM1745): 89.2%
- cell count (WM3526): 79.1%
- cell count (WM3619): 63.6%
- cell count (WM451Lu): 96.4%

Compound: NC1(c2ccc(-c3nc4ccn5c(=O)[nH]nc5c4cc3-c3ccccc3)cc2)CCC1 + CC(C)CCN1c2nc(Nc3cc(F)c(O)c(F)c3)ncc2N(C)C(=O)C1C [BID1870] (first compound 0.4 µM, partner dose 0.2 µM)
- cell count (WM115): 70.5%
- cell count (WM1716): 80.6%
- cell count (WM1745): 94.4%
- cell count (WM3526): 81.2%
- cell count (WM3619): 83.1%
- cell count (WM451Lu): 102%

Compound: CCCS(=O)(=O)Nc1ccc(F)c(C(=O)c2c[nH]c3ncc(Cl)cc23)c1F + Cn1c(Nc2ccc(C(F)(F)F)cc2)nc2cc(Oc3ccnc(-c4ncc(C(F)(F)F)[nH]4)c3)ccc21 [CHIR265] (first compound 0.08 µM, partner dose 0.08 µM)
- cell count (WM115): 64.9%
- cell count (WM1716): 96.4%
- cell count (WM1745): 72.7%
- cell count (WM3526): 51.2%
- cell count (WM3619): 87.7%
- cell count (WM451Lu): 90.1%

Compound: CN(c1ncccc1CNc1nc(Nc2ccc3c(c2)CC(=O)N3)ncc1C(F)(F)F)S(C)(=O)=O + COC(=O)c1sccc1S(=O)(=O)Nc1ccc(Nc2ccccc2)cc1OC [GSK0660] (first compound 0.08 µM, partner dose 1 µM)
- cell count (WM115): 74.8%
- cell count (WM1716): 96.8%
- cell count (WM1745): 75.2%
- cell count (WM3526): 99.7%
- cell count (WM3619): 108%
- cell count (WM451Lu): 113%

Compound: CN(c1ncccc1CNc1nc(Nc2ccc3c(c2)CC(=O)N3)ncc1C(F)(F)F)S(C)(=O)=O + C=CCNC1=C2C[C@@H](C)C[C@H](OC)[C@H](O)[C@@H](C)/C=C(\C)[C@H](OC(N)=O)[C@@H](OC)/C=C\C=C(/C)C(=O)NC(=CC1=O)C2=O [Tanespimycin] (first compound 0.08 µM, partner dose 0.002 µM)
- cell count (WM115): 65.4%
- cell count (WM1716): 85.5%
- cell count (WM1745): 84.9%
- cell count (WM3526): 112%
- cell count (WM3619): 95.3%
- cell count (WM451Lu): 63.5%

Compound: CN(c1ncccc1CNc1nc(Nc2ccc3c(c2)CC(=O)N3)ncc1C(F)(F)F)S(C)(=O)=O + C#Cc1cccc(Nc2ncnc3cc(OCCOC)c(OCCOC)cc23)c1 [erlotinib] (first compound 0.08 µM, partner dose 0.8 µM)
- cell count (WM115): 70.3%
- cell count (WM1716): 80.9%
- cell count (WM1745): 79.7%
- cell count (WM3526): 91.7%
- cell count (WM3619): 97.7%
- cell count (WM451Lu): 72.6%

Compound: NC1(c2ccc(-c3nc4ccn5c(=O)[nH]nc5c4cc3-c3ccccc3)cc2)CCC1 + COc1ccc(COc2ccc(Cc3cnc(N)nc3N)cc2OC)cc1 [GW2580] (first compound 0.4 µM, partner dose 1 µM)
- cell count (WM115): 70.3%
- cell count (WM1716): 94.2%
- cell count (WM1745): 82.1%
- cell count (WM3526): 56%
- cell count (WM3619): 76.9%
- cell count (WM451Lu): 90.4%

Compound: C=C(c1ccc(C(=O)O)cc1)c1cc2c(cc1C)C(C)(C)CCC2(C)C [Bexarotene] + O=S(=O)(c1ccccc1)N(CC(F)(F)F)c1ccc(C(O)(C(F)(F)F)C(F)(F)F)cc1 [T0901317] (first compound 2 µM, partner dose 1.4 µM)
- cell count (WM115): 88.8%
- cell count (WM1716): 70.5%
- cell count (WM1745): 68.1%
- cell count (WM3526): 82.9%
- cell count (WM3619): 94.9%
- cell count (WM451Lu): 80.6%

Compound: C=C(c1ccc(C(=O)O)cc1)c1cc2c(cc1C)C(C)(C)CCC2(C)C [Bexarotene] + COc1cc2ncnc(Nc3ccc(Oc4ccccc4)cc3)c2cc1OC [SrcI1] (first compound 2 µM, partner dose 2 µM)
- cell count (WM115): 109%
- cell count (WM1716): 86%
- cell count (WM1745): 76.4%
- cell count (WM3526): 95.1%
- cell count (WM3619): 87.5%
- cell count (WM451Lu): 98.1%

Compound: CCCS(=O)(=O)Nc1ccc(F)c(C(=O)c2c[nH]c3ncc(Cl)cc23)c1F + O=C(O)c1ccc(-c2c[nH]c3ncc(-c4ccccc4)cc23)cc1C1CCCC1 [GSK650394] (first compound 0.08 µM, partner dose 0.16 µM)
- cell count (WM115): 87.9%
- cell count (WM1716): 101%
- cell count (WM1745): 83.9%
- cell count (WM3526): 65.9%
- cell count (WM3619): 68%
- cell count (WM451Lu): 91.6%

Compound: C=C(c1ccc(C(=O)O)cc1)c1cc2c(cc1C)C(C)(C)CCC2(C)C [Bexarotene] + Cc1cc([N+](=O)[O-])ccc1NS(=O)(=O)c1cc(Cl)ccc1Cl [FH535] (first compound 2 µM, partner dose 1 µM)
- cell count (WM115): 119%
- cell count (WM1716): 83.3%
- cell count (WM1745): 79.4%
- cell count (WM3526): 85.1%
- cell count (WM3619): 112%
- cell count (WM451Lu): 95.5%

Compound: CN(c1ncccc1CNc1nc(Nc2ccc3c(c2)CC(=O)N3)ncc1C(F)(F)F)S(C)(=O)=O + Cc1cc([N+](=O)[O-])ccc1NS(=O)(=O)c1cc(Cl)ccc1Cl [FH535] (first compound 0.08 µM, partner dose 1 µM)
- cell count (WM115): 72%
- cell count (WM1716): 68.4%
- cell count (WM1745): 75.6%
- cell count (WM3526): 79.4%
- cell count (WM3619): 94.6%
- cell count (WM451Lu): 72.7%

Compound: CS(=O)(=O)c1ccc(C(=O)Nc2ccc(Cl)c(-c3ccccn3)c2)c(Cl)c1 [vismodegib] + C=C(c1ccc(C(=O)O)cc1)c1cc2c(cc1C)C(C)(C)CCC2(C)C [Bexarotene] (first compound 1 µM, partner dose 2 µM)
- cell count (WM115): 98.3%
- cell count (WM1716): 76.6%
- cell count (WM1745): 101%
- cell count (WM3526): 88.6%
- cell count (WM3619): 92.7%
- cell count (WM451Lu): 80.3%

Compound: CN(c1ncccc1CNc1nc(Nc2ccc3c(c2)CC(=O)N3)ncc1C(F)(F)F)S(C)(=O)=O + O=C(O)c1ccc2c(c1)nc(Nc1cccc(Cl)c1)c1ccncc12 [CX4945] (first compound 0.08 µM, partner dose 0.4 µM)
- cell count (WM115): 88%
- cell count (WM1716): 86.4%
- cell count (WM1745): 94.6%
- cell count (WM3526): 111%
- cell count (WM3619): 95.7%
- cell count (WM451Lu): 79.6%

Compound: CCCS(=O)(=O)Nc1ccc(F)c(C(=O)c2c[nH]c3ncc(Cl)cc23)c1F + COC(=O)c1sccc1S(=O)(=O)Nc1ccc(Nc2ccccc2)cc1OC [GSK0660] (first compound 0.08 µM, partner dose 1 µM)
- cell count (WM115): 87.8%
- cell count (WM1716): 126%
- cell count (WM1745): 80.2%
- cell count (WM3526): 60.3%
- cell count (WM3619): 95.4%
- cell count (WM451Lu): 103%

Compound: C=C(c1ccc(C(=O)O)cc1)c1cc2c(cc1C)C(C)(C)CCC2(C)C [Bexarotene] + O=C1NC(=O)/C(=C/c2ccc(-c3ccc(F)cc3O)o2)S1 [AS252424] (first compound 2 µM, partner dose 1 µM)
- cell count (WM115): 99.7%
- cell count (WM1716): 65.4%
- cell count (WM1745): 92.5%
- cell count (WM3526): 94.2%
- cell count (WM3619): 91.1%
- cell count (WM451Lu): 72.5%

Compound: NC1(c2ccc(-c3nc4ccn5c(=O)[nH]nc5c4cc3-c3ccccc3)cc2)CCC1 + CN(C)S(=O)(=O)c1ccc2c(c1)/C(=C/c1cc3c([nH]1)CCCC3)C(=O)N2 [SU6656] (first compound 0.4 µM, partner dose 0.4 µM)
- cell count (WM115): 63.9%
- cell count (WM1716): 85.1%
- cell count (WM1745): 81.4%
- cell count (WM3526): 74.8%
- cell count (WM3619): 96.1%
- cell count (WM451Lu): 97.9%

Compound: NC1(c2ccc(-c3nc4ccn5c(=O)[nH]nc5c4cc3-c3ccccc3)cc2)CCC1 + O=C(Nc1ccccc1)c1cc([N+](=O)[O-])ccc1Cl [GW9662] (first compound 0.4 µM, partner dose 2 µM)
- cell count (WM115): 93.2%
- cell count (WM1716): 98.2%
- cell count (WM1745): 79.9%
- cell count (WM3526): 71.4%
- cell count (WM3619): 109%
- cell count (WM451Lu): 104%

Compound: NC1(c2ccc(-c3nc4ccn5c(=O)[nH]nc5c4cc3-c3ccccc3)cc2)CCC1 + CN1CCN(c2ccc3nc(-c4c(N)c5c(F)cccc5[nH]c4=O)[nH]c3c2)CC1 [Dovitinib] (first compound 0.4 µM, partner dose 0.1 µM)
- cell count (WM115): 71.7%
- cell count (WM1716): 89.1%
- cell count (WM1745): 91.8%
- cell count (WM3526): 62.5%
- cell count (WM3619): 82.9%
- cell count (WM451Lu): 74.9%
